Reference: publication PMC4040332 (ChemMedChem, 2013)

Test system: S. aureus
Experiment: Cell wall lysis assay
Settings: 24 hours, tetracycline at concentrations up to 100-times the published MIC50

CC1(C)S[C@@H]2[C@H](NC(=O)[C@H](N)c3ccccc3)C(=O)N2[C@H]1C(=O)O [ampicillin]
luminescence response (cell lysis control): dose-dependent increase in luminescence

CN(C)[C@@H]1C(O)=C(C(N)=O)C(=O)[C@@]2(O)C(O)=C3C(=O)c4c(O)cccc4[C@@](C)(O)[C@H]3C[C@@H]12 [tetracycline]
luminescence response (cell lysis control): no increase in luminescence
